Experimental data from the RNAGym collection of RNA variant scans (doi:10.7554/elife.90254).
The source gives no read counts; variants with many changes may rest on few reads.

B1: LINE1-mini (parent)
chain: GGCAGAGCUCAACACAGCGUGGCAAAGUGGCUGUGGCUAGACUGCC

Variants of: B1
Test: self-cleavage, relative activity (ratio to wild type); higher = more cleavage; in vitro, sequencing; the parent is a self-cleaving ribozyme

Variant	self-cleavage
GGCAGAGCUCAACAAAGCGUGGCAAUUUGGCUGUGGCUAGACUCCC [C15A A26U G27U G44C]	0.01
GGCAGAGCUCAACAAAGUGUCGCAAAGUGGCUGUGGCUAUACUGCC [C15A C18U G21C G40U]	0.03
GGCAGAGCUCAACAAAGCGUGGCAAAGUGGCUGUGGGUAGACUGAU [C15A C37G C45A C46U]	0.01
GGCAGAGCUCAACAAAGCGUGGCUAAGUGGCUGUGCCUAGACUGCC [C15A A24U G36C]	0.18
GGCAGAGCUCAACAAAGCGUGGCAAAGUGGAUGUAGCUAGACUGCC [C15A C31A G35A]	0.03
GGCAGAGCUCAACAAAGCGUGGCAAUGUGGCUGUGGCGAGACCGCC [C15A A26U U38G U43C]	0.01
GGCAGAGCUCAACAAAGCGUGGAUAAGUGUCUGUGGCUAGACUGCC [C15A C23A A24U G30U]	0.05
GGCAGAGCUCAACAAAACGUGGCAAAGUGGCUGUGGUUAGACUGCC [C15A G17A C37U]	0.01
GGCAGAGCUCAACAAACCGUGGCAAAGUGGCUCUGGCUAGACUGCC [C15A G17C G33C]	0.03
GGCAGAGCUCAACAAAGCGUGGCAAUGUGGCUGUGGCUAGACUUCC [C15A A26U G44U]	0.02
GGCAGAGCUCAACAAAGCGUGGCAAAGUGGCUGUGGGUAGUCUGCC [C15A C37G A41U]	0.05
GGCAGAGCUCAACAAAGGGUGGUAAAGUGGCUGUGGCUAGACUGCC [C15A C18G C23U]	0.05
GGCAGAGCUCAACAAAGCGUGGCACAGUGGCUGUGGCUCGACUACC [C15A A25C A39C G44A]	0.02
GGCAGAGCUCAACAAAGCGUGGCAUAGUGGCUGUGGCUAGACUGCG [C15A A25U C46G]	0.08
GGCAGAGCUCAACAAAGCGUGGCAAUGUGGCUGUGGCUAGACUGAC [C15A A26U C45A]	0.04
GGCAGAGCUCAACAAAGCGUGGCAAAGUGGCUGUGGCUAGAUUGCA [C15A C42U C46A]	0.02
GGCAGAGCUCAACAAAGCUUGGCACAGUGGCUGUGGAUGGACUGCC [C15A G19U A25C C37A A39G]	0.02
GGCAGAGCUCAACAAAGCCAGUCAAAGUGGCUGUGGCUAGACUGCC [C15A G19C U20A G22U]	0.09
GGCAGAGCUCAACAAAGCAUGGGAAAGUGGCUGUGGCUGGACUGCC [C15A G19A C23G A39G]	0.05

Variant	self-cleavage
GGCAGAGCUCAACAAAACGUGGCAAAGUGGCUGUGGCAAGCCUGCC [C15A G17A U38A A41C]	0.02
GGCAGAGCUCAACAAAUCGUGGCAAAGAGGCUUUGGCUAGACUGCC [C15A G17U U28A G33U]	0.04
GGCAGAGCUCAACAAAGGGUGGCAAAGUGGCUGUGGCUAGAAUGCC [C15A C18G C42A]	0.02
GGCAGAGCUCAACAAAGCAUGGCAAAGUAGCUGUGGCUAGACUGCC [C15A G19A G29A]	0.06
GGCAGAGCUCAACAAAGCGUGGGAAAGUGGCUAUGGCUAGACUGAC [C15A C23G G33A C45A]	0.12
GGCAGAGCUCAACAAAGCGUGGCAAAGUGGCUGUGGCUUGACCGCC [C15A A39U U43C]	0.01
GGCAGAGCUCAACAAAGCGUGGCAAAGUGGCUGUGGUUAGAGUGCC [C15A C37U C42G]	0.03
GGCAGAGCUCAACAAAGCCUUGCAAAGUGUCUGUGGCUAGAUUGCC [C15A G19C G21U G30U C42U]	0.02
GGCAGAGCUCAACAAAGGGUUGCAAAGUGGCUGUGGCUAGACUGCC [C15A C18G G21U]	0.29
GGCAGAGCUCAACAAAGAGUGGCAAAUUGGCUGUGGCUACACUGCC [C15A C18A G27U G40C]	0.04
GGCAGAGCUCAACAAACUGUGGGAAAGUGGCUGUGUCCAGACUGCC [C15A G17C C18U C23G G36U U38C]	0.05
GGCAGAGCUCAACAAAGCGUGGGAAAGUGGCAGUGGCUGGACUGCA [C15A C23G U32A A39G C46A]	0.01
GGCAGAGCUCAACAAAGCGUGGCAACUUGGCUGUGGCUCGACUGCC [C15A A26C G27U A39C]	0.11
GGCAGAGCUCAACAAAGCGUGGCAUAGUGGCUGUGGCUAGAUUGCU [C15A A25U C42U C46U]	0.05
GGCAGAGCUCAACAAAGCGUGGCAACGUGGCUGUAGCUAGACUGGC [C15A A26C G35A C45G]	0
GGCAGAGCUCAACAAAGCGUGGCAGAGUGGCAGUGGCUAGACUUCA [C15A A25G U32A G44U C46A]	0.02
GGCAGAGCUCAACAAAGCCUGGCAAAGUGGCGGUGGCUAGACUGCC [C15A G19C U32G]	0.03
GGCAGAGCUCAACAAAGUGUCGCAAAGUGGCUGUGGCUAGACUGCC [C15A C18U G21C]	0.04
GGCAGAGCUCAACAAAGCAUGGCAAAUUGGCUGUGGCUACACUGCC [C15A G19A G27U G40C]	0.06

Variant	self-cleavage
GGCAGAGCUCAACAAAGCGUGGCACAGUGGCUUUGGCUAGACUGCC [C15A A25C G33U]	0.2
GGCAGAGCUCAACAAAGCAUGGCAAAGUGGCUGUGGCUAGACUCCU [C15A G19A G44C C46U]	0.02
GGCAGAGCUCAACAAAGCGUGGCACAGUGGGUGUGGCAAGUGUUCG [C15A A25C C31G U38A A41U C42G G44U C46G]	0
GGCAGAGCUCAACAAAGAGUGGCAAAGUGGAUGUGGCUAGACUGCC [C15A C18A C31A]	0
GGCAGAGCUCAACAAAGAGUUGCGAAGUGGCUGUGGCUAGACUGCC [C15A C18A G21U A24G]	0.06
GGCAGAGCUCAACAAAGCGUGGCAAAGUGGUUGUGGCUAUACUGCC [C15A C31U G40U]	0.04
GGCAGAGCUCAACAAAGCGUGGCAAAGUGGAUGUGGCUACACUGCC [C15A C31A G40C]	0.01
GGCAGAGCUCAACAAAGCGUGGUGAAGUGGCUGUGGCUAGACUGCC [C15A C23U A24G]	0.16
GGCAGAGCUCAACAAAGCGUGGAAAAGUGGCUAUGGCUAGACAGCA [C15A C23A G33A U43A C46A]	0.04
GGCAGAGCUCAACAAAGCGUGGCACAGUGGCUGUGGCUACACUCCC [C15A A25C G40C G44C]	0.01
GGCAGAGCUCAACAAAGCAUGGCUAAGUUGCUGUCGCUAGACGGCC [C15A G19A A24U G29U G35C U43G]	0.02
GGCAGAGCUCAACAAAGAGUGGCAACGUGGCUGUGGCUAGACUGCC [C15A C18A A26C]	0.07
GGCAGAGCUCAACAAAACGUGGCAAAGUGGCUGUGGCUAGACUGCA [C15A G17A C46A]	0.02
GGCAGAGCUCAACAAAGCGUGGCAAGCUGGCUGUGGCCAGACUGCC [C15A A26G G27C U38C]	0.08
GGCAGAGCUCAACAAAGCGUGGCAACGUAGCUGUGGCUAGACUGCC [C15A A26C G29A]	0.11
GGCAGAGCUCAACAAAGCCUGCUAAAGUGUCUGUGGCUAGACUGCC [C15A G19C G22C C23U G30U]	0.02
GGCAGAGCUCAACAAAGCGUGGCAUAGAGGCUGUGGCUAGACUGCC [C15A A25U U28A]	0.08
GGCAGAGCUCAACAAAGCCUGGUAAAGUGGCUGUGGCUAGACUGCC [C15A G19C C23U]	0.06
